Assay results taken from ChEMBL document CHEMBL4888484, “Replenishing the malaria drug discovery pipeline: Screening and hit evaluation of the MMV Hit Generation Library 1 (HGL1) against asexual blood stage Plasmodium falciparum ,using a nano luciferase reporter read-out” (2022).
Hit rate of the full screen: of about 150,000 compounds, about 540 (0.36%) showed an effect of 50% or more. This is one part of the list.

These compounds were tested on Plasmodium falciparum (assay: Primary screen in NF54 nanoGlo assay, in single point, at 2uM, 72h; a lower Z score goes with more inhibition). Settings: timepoint 72 hour.
Type: functional, Erythrocyte
`CC(C)n1cc(CNc2cc(Br)cn(C)c2=O)cn1` was tested, and the “% Inhibition” value was -7% and the Z score was 1.19.
With `CCc1oc(C(=O)NCCOC(N)=O)cc1C` the “% Inhibition” value was -5% and the Z score was 0.49.
In the case of `COc1cc(-c2nnc3n2CC(C)(C)CN3)cc(OC)c1OC`, the “% Inhibition” value is reported as 31% and the Z score is reported as -0.1.
`CC(C)(C)OC(=O)N[C@@H]1CCCCC[C@H]1NC(=O)CNC(=O)NC1CC1` was tested, and the “% Inhibition” value was 34% and the Z score was -3.79.
With `CC(C)Cc1cc(C(=O)NC[C@H](C)N2CCN(C)CC2)cc(O)n1` the “% Inhibition” value was -11% and the Z score was 1.47.
In the case of `CN1C(=O)[C@@H](c2ccccc2)CC12CCN(C(=O)c1ccc(F)cc1)CC2`, the “% Inhibition” value is reported as -9% and the Z score is reported as 1.81.
With `Cn1ccc(NC(=O)Nc2nc(C3CCC3)cs2)n1` the “% Inhibition” value was -13% and the Z score was 1.25.
With `CCc1ccc(N2C(O)=Nc3ccccc3S2(=O)=O)cc1` the “% Inhibition” value was -7% and the Z score was 1.11.
In the case of `CC1CC1C(=O)NC1CCC(CN(C)C(=O)C2CC2C)CC1` (configuration not stated), the “% Inhibition” value is reported as 2% and the Z score is reported as -0.41.
In the case of `COc1cccc(-c2ncc(CN3C[C@@H](CN4CCOCC4)[C@@H](CO)C3)s2)c1`, the “% Inhibition” value is reported as -1% and the Z score is reported as 0.27.
In the case of `Cc1ccc(Oc2ncccc2CNC(=O)c2ccc(C)nc2O)cn1`, the “% Inhibition” value is reported as 2% and the Z score is reported as -0.2.
`CS(=O)(=O)C1(CNC(=O)[C@@H]2CCCN2C2CC2)CC1` was tested, and the “% Inhibition” value was -6% and the Z score was 0.93.
With `CC(C)NC(=O)c1cccn(-c2ccc(NC(=O)c3ccc(Br)cc3)cc2)c1=O` the “% Inhibition” value was 10% and the Z score was -1.38.
For `Cc1nc(NCc2c(C)noc2C)n(C)n1`, the “% Inhibition” value was -4% and the Z score was 0.61.
For `O=C(c1ccccc1-c1nnn[nH]1)N1C[C@@H]2CC[C@H]1CN(c1ncccn1)C2`, the “% Inhibition” value was -11% and the Z score was 1.77.
`CCn1c2ccccc2c2cc(-c3nccn3C(CO)CO)ccc21` was tested, and the “% Inhibition” value was 8% and the Z score was -1.3.
`O=C(NCc1csc(NC(=O)C2CCC2)n1)C1CCC1` was tested, and the “% Inhibition” value was -1% and the Z score was 0.16.
In the case of `Cc1nc(C)c(C(=O)N[C@H]2CCOC[C@@H]2OCc2cscn2)s1`, the “% Inhibition” value is reported as 1% and the Z score is reported as -0.1.
For `C[C@@H](C(=O)NCc1ccc2c(c1)OCO2)n1cncn1`, the “% Inhibition” value was -1% and the Z score was 0.16.
`Fc1ccc(F)c(-c2nc(-c3ccc4nncn4c3)no2)c1` was tested, and the “% Inhibition” value was -14% and the Z score was 2.38.
`CCc1ncc2c(n1)CN(C(=O)c1cnc(C(C)C)nc1C)C2` was tested, and the “% Inhibition” value was 0% and the Z score was -0.05.
In the case of `CC(C)C[C@@H](C#N)NC(=O)Cc1ccc(F)cc1`, the “% Inhibition” value is reported as -4% and the Z score is reported as 0.74.
`CN(C)C(=O)c1cc2c(n1C)CN(C(=O)[C@H]1CC(=O)N(C3CCCC3)C1)CC2` was tested, and the “% Inhibition” value was 14% and the Z score was -1.92.
In the case of `COC(=O)c1cc(C2CC2)nc2c1c(=O)n(Cc1cccc(OC)c1)c(=O)n2-c1ccccc1`, the “% Inhibition” value is reported as -16% and the Z score is reported as 2.05.
In the case of `CC(=O)c1cccc(NC(=O)O[C@@H]2CO[C@H]3[C@@H]2OC[C@@H]3Nc2nccc(C3CCCC3)n2)c1`, the “% Inhibition” value is reported as 35% and the Z score is reported as -3.91.
With `COc1ccc(NC(=O)[C@H](Oc2ccc(OC)cc2)c2ccccc2)cc1` the “% Inhibition” value was 2% and the Z score was -0.29.
In the case of `Clc1cc2c(c(CN3CCC4(CC3)OCCO4)c1)OCOC2`, the “% Inhibition” value is reported as -8% and the Z score is reported as 1.46.
In the case of `O=C(COc1ccccc1)N1C[C@@H]2OCC(=O)N(Cc3ccc(F)cc3)[C@@H]2C1`, the “% Inhibition” value is reported as -10% and the Z score is reported as 1.26.
In the case of `O=C(NCc1cccc(C(F)(F)F)c1)c1ccc(Oc2nccnc2N2CCOCC2)cc1`, the “% Inhibition” value is reported as 7% and the Z score is reported as -1.05.
`CCNC(=O)C(=O)NC[C@](C)(O)c1cc2ccccc2o1` was tested, and the “% Inhibition” value was -12% and the Z score was 1.57.
`O=C(NCc1cncc(-c2ccsc2)c1)c1ccc(Cl)s1` was tested, and the “% Inhibition” value was -17% and the Z score was 2.61.
With `COc1cc(Cl)c(Cl)cc1NCc1ncc(C)o1` the “% Inhibition” value was -3% and the Z score was 0.28.
In the case of `CCOC(=O)c1cn(Cc2nnc(C(C)C)o2)nc1C(F)(F)F`, the “% Inhibition” value is reported as -8% and the Z score is reported as 1.09.
`O=C(c1ccc(Cl)cc1)N1CCn2nccc2C1` was tested, and the “% Inhibition” value was -11% and the Z score was 1.3.
`CC(C)Cc1cnc(NC(=O)NC(C)C(C)CO)s1` (configuration not stated) was tested, and the “% Inhibition” value was 12% and the Z score was -1.1.
In the case of `CCN1CC(=O)N[C@H]2CN(C(=O)C3CCOCC3)CC[C@@H]2OCc2cccc(c2)Oc2cccc(c2)CC1=O`, the “% Inhibition” value is reported as 28% and the Z score is reported as -3.83.
In the case of `Cc1cccc(F)c1C(=O)N1CCN(C2CCCCC2)C(=O)C1`, the “% Inhibition” value is reported as -6% and the Z score is reported as 0.78.
With `COc1ccc(-c2nn(-c3ccccc3C)cc2CN(C)Cc2cn(C)nc2C)cc1F` the “% Inhibition” value was -5% and the Z score was 0.6.
With `Cc1nc2n(n1)C[C@@H](Nc1ncnc3sccc13)CC2` the “% Inhibition” value was -7% and the Z score was 1.46.
With `Cc1cc(C)n(C(=O)CNC(=O)c2ccccn2)n1` the “% Inhibition” value was 40% and the Z score was -5.14.
`Cc1cc(O)c(C(C)C)cc1NC(=O)Nc1c(C)ccn(C)c1=O` was tested, and the “% Inhibition” value was -7% and the Z score was 1.09.
`CCCc1[nH]nc(CCc2ccc(OC)cc2)c1NC(=O)C1CCCCC1` was tested, and the “% Inhibition” value was -9% and the Z score was 1.59.
With `CCc1nc2c(c(NCCCOc3cccnc3)n1)CCNCC2` the “% Inhibition” value was 12% and the Z score was -1.57.
`C[C@H](O)CN(CC(=O)Nc1ccc(Cl)cc1)Cc1cccnc1` was tested, and the “% Inhibition” value was -6% and the Z score was 1.16.
`O=C1CCN(CCCc2ccccc2)CCN1Cc1cc2c(cc1Cl)OCO2` was tested, and the “% Inhibition” value was 6% and the Z score was -0.7.
For `CCOc1ccc(Nc2nc(-c3cccc(Cl)c3)c3c(n2)-c2ccccc2OC3)cc1`, the “% Inhibition” value was -6% and the Z score was 0.86.
In the case of `C[C@@H](C(=O)N1CCCCC1)S(=O)(=O)c1ccc2c(c1)CCCC2`, the “% Inhibition” value is reported as -6% and the Z score is reported as 0.97.
`CCc1n[nH]c(=O)c2cc(S(=O)(=O)NCc3ccco3)cn12` was tested, and the “% Inhibition” value was 6% and the Z score was -0.78.
With `COC[C@H]1C[C@@H](NCc2cccc(Cl)c2)[C@H](O)[C@@H]1O` the “% Inhibition” value was -6% and the Z score was 0.89.
For `CC(C)N(C)c1ccccc1CNC(=O)NC[C@H](C)O`, the “% Inhibition” value was 4% and the Z score was -0.45.
For `C[C@H]1CN(C(=O)CCCn2cncn2)CCN1c1ccccc1`, the “% Inhibition” value was -8% and the Z score was 1.24.
`CN(CCN(C)C1CC1)C(=O)c1cnc(C2CCCC2)nc1N` was tested, and the “% Inhibition” value was -4% and the Z score was 0.84.
`Cn1cc(NC(=O)CCCc2nnc3ccccn23)cn1` was tested, and the “% Inhibition” value was -7% and the Z score was 1.35.
For `O=C(c1ccn(C(=O)c2ccccc2Cl)n1)N1CCCCC1`, the “% Inhibition” value was 12% and the Z score was -1.44.
In the case of `O=C1CCCC(C(=O)NC[C@@H]2C[C@H]2C2CCCCC2)N1` (some centres not stated), the “% Inhibition” value is reported as -3% and the Z score is reported as 0.31.
`COc1ccc(S(=O)(=O)N(C)c2ccnc(C(=O)NCc3ccc4c(c3)OCO4)c2)cc1` was tested, and the “% Inhibition” value was -2% and the Z score was 0.38.
With `OCCN(CCO)c1ccccc1N(CCO)CCO` the “% Inhibition” value was -9% and the Z score was 1.76.
In the case of `C[C@H](NC(=O)c1n[nH]c(=O)c2ccccc12)c1ccncc1`, the “% Inhibition” value is reported as -4% and the Z score is reported as 0.51.
`Cc1ccsc1CN1CC[C@](C)(O)[C@H](CC(C)C)C1` was tested, and the “% Inhibition” value was -7% and the Z score was 1.34.
For `c1ccc(CN2CCC(Nc3ccc4nnnn4n3)CC2)cc1`, the “% Inhibition” value was -8% and the Z score was 1.01.
For `CN1CCN([C@H]2CCCCN(C(=O)N(C)c3ccc(F)cc3)C2)CC1`, the “% Inhibition” value was 4% and the Z score was -0.64.
For `Cc1cc(C(=O)Nc2ccc(Oc3ccc(F)cc3F)nc2)ncn1`, the “% Inhibition” value was 6% and the Z score was -0.88.
`Cc1ccc(NC(=O)c2cnn3c2NC(c2ccc(C)cc2)=C[C@H]3c2ccc(F)cc2)cc1` was tested, and the “% Inhibition” value was -3% and the Z score was 0.27.
With `CC(C#N)CN(C)S(=O)(=O)N1CCCCC1c1nnc[nH]1` (configuration not stated) the “% Inhibition” value was -3% and the Z score was 0.33.
In the case of `Cc1ccc(S(=O)(=O)NCc2nc(-c3cccn3C)no2)s1`, the “% Inhibition” value is reported as 4% and the Z score is reported as -0.51.
For `Cc1ccc2c(c1)c(C)c1n2CC2COC1(C)O2` (configuration not stated), the “% Inhibition” value was -2% and the Z score was 0.47.
`CN(C)c1ccc(CCC(=O)N2CCNC(=O)C2)cc1` was tested, and the “% Inhibition” value was -5% and the Z score was 0.79.
With `CCCC(=O)Nc1ccc2c(c1)CN(C(=O)Cc1ccccc1C)[C@H](C(=O)N(C)C)C2` the “% Inhibition” value was -12% and the Z score was 1.96.
With `CC(CO)(CO)NC(=O)C(=O)Nc1ccccc1` the “% Inhibition” value was -12% and the Z score was 1.64.
With `CC[C@H](C)NC(=O)CCc1nnc2c3cc(-c4ccc(OC)cc4)nn3ccn12` the “% Inhibition” value was -5% and the Z score was 0.73.
`CC1(C)CCN(C(=O)NCc2nnc([C@@H]3CCCO3)[nH]2)C1` was tested, and the “% Inhibition” value was -5% and the Z score was 0.89.
With `CCN(Cc1c(C)nn(C)c1Cl)CC1CCOCC1` the “% Inhibition” value was 14% and the Z score was -1.74.
In the case of `O=C1c2ccccc2[C@](O)(c2ccccc2)N1C1CCCC1`, the “% Inhibition” value is reported as -5% and the Z score is reported as 0.62.
`CCCCN(CC(N)=O)c1ncccn1` was tested, and the “% Inhibition” value was -5% and the Z score was 0.68.
For `CN(CC1(C)COC1)C(=O)Cc1cccnc1`, the “% Inhibition” value was 10% and the Z score was -1.99.
In the case of `CCC(C)n1ncc(NC(=O)NC2CC(C)(C)c3ccccc32)c1C` (configuration not stated), the “% Inhibition” value is reported as 1% and the Z score is reported as -0.19.
`COCCO/C(=N/C(=O)c1ccccc1F)NCc1ccccn1` was tested, and the “% Inhibition” value was -4% and the Z score was 0.53.
For `COc1cccc(CN2CC3(CCN(C(=O)c4ccoc4C)CC3)CC2=O)c1`, the “% Inhibition” value was -7% and the Z score was 1.1.
For `COCCN(CC(=O)N(Cc1ccc2c(c1)OCO2)Cc1cccs1)C(=O)Nc1cc(C(F)(F)F)cc(C(F)(F)F)c1`, the “% Inhibition” value was 3% and the Z score was -0.42.
With `Cc1nc(-c2csc(-c3cccs3)n2)n(CCO)n1` the “% Inhibition” value was -6% and the Z score was 1.
With `Cc1noc([C@H](C)NC(=O)CCc2ccccc2Cl)n1` the “% Inhibition” value was -6% and the Z score was 0.81.
For `CC1CC2c3cccc(C(=O)O)c3C(=O)N2C(C)c2ccccc21` (configuration not stated), the “% Inhibition” value was 0% and the Z score was -0.09.
With `CC1CCN(Cc2ncc(-c3ccccc3)o2)C2CCCCC12` (configuration not stated) the “% Inhibition” value was -11% and the Z score was 1.57.
In the case of `Cc1cc(-c2nnn(CCn3cccn3)n2)ccc1F`, the “% Inhibition” value is reported as 7% and the Z score is reported as -1.44.
For `CCn1ncnc1-c1nccn1CCn1ccnc1`, the “% Inhibition” value was -3% and the Z score was 0.28.
For `CCCCNC(=O)COCC(=O)Nc1ccccc1`, the “% Inhibition” value was 2% and the Z score was -0.25.
